From publication PMC7819943, “Rice protein-binding microarrays: a tool to detect cis-acting elements near promoter regions in rice” come the findings set out here.

The list shows a part of the results.

This test deals with T1, OsWOX13 (Oryza sativa, UniProt Q5QMM3 1-267).
T1 sequence: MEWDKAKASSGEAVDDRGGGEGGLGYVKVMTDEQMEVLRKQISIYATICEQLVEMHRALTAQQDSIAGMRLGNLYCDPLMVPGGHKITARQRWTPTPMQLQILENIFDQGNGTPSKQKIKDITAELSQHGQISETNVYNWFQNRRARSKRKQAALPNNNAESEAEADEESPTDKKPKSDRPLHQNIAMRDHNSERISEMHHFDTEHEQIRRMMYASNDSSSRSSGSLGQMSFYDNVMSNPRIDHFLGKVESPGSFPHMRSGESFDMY
The test is described as follows: protein-binding microarray (RPBM); PBS, 2% BSA, 51.3 ng/ul salmon testes DNA, 50 uM zinc acetate, 200 nM TF, 25 C, 1 h; high values mean tight binding. Particulars: protein: recombinant; tags: N-terminal polyhistidine and DsRed monomer fusion (pET32a); label: CyDye5-dUTP incorporated in the synthesized complementary strand; 3' TTTTT single-stranded linker to array surface; dsDNA, one strand shown. The method in brief:
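Polyhistidine-tagged DsRed fusions of transcription factors, joined at the N-terminus, were expressed in E. coli BL21-CodonPlus and isolated on Ni–NTA. They were incubated at 200 nM for 1 h at 25 °C on a custom Agilent array, double-stranded and BSA-blocked, in PBS with 2% BSA, salmon testes DNA and 50 µM zinc acetate. The binding signal is per-feature fluorescence intensity (arbitrary units) read on an Axon 4000B scanner after washing.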
As to “GCTGTCAGATGTGATTGCCGGGCCCAACGTCGTGTCTTCACGGAGTCACCTAGTGCAG”, the binding signal is 8580 fluorescence intensity (a.u.).

“AGCAATTACAGTTCAAAACAGGGTCAAATAAGCAATTGTCCGGAGTCACCTAGTGCAG”: the binding signal was 3470 fluorescence intensity (a.u.). As to “TTTGGTCAATTGATTTACACATAAATTATGGAGATAATGTCGGAGTCACCTAGTGCAG”, the binding signal was 33700 fluorescence intensity (a.u.). On to “ATATATAGTTTGATTGAGTTTGCGTTCGCTGAATCTGGTTCGGAGTCACCTAGTGCAG”, for which the binding signal was 11200 fluorescence intensity (a.u.). As to “TAATAAACTGATACAGATACTCCTCCACTCGTAAGCGTGGCGGAGTCACCTAGTGCAG”, the binding signal was 9680 fluorescence intensity (a.u.).

In the case of “GGATAATTTGGCAATAATGTAGGCCAATGCAGGATCCTGCCGGAGTCACCTAGTGCAG”, the binding signal was 22300 fluorescence intensity (a.u.).

Consider “TTAAGTAATTAAGAGGTGATAGTTAATTTATGCATGCATGCGGAGTCACCTAGTGCAG”, for which the binding signal is 30400 fluorescence intensity (a.u.). For the sequence “AACACGTACTTAATTGATACGAGCGCAGCTCAATCATCAGCGGAGTCACCTAGTGCAG”, the binding signal was 34100 fluorescence intensity (a.u.). In the case of “CTTACCTTAACATTCTTTGCAGATTGGCTAAATCAGAATGCGGAGTCACCTAGTGCAG” it was 4320 fluorescence intensity (a.u.); in that of “AGAACTTTCAATTAATTTGTTCCAAGCAATATTAGCATACCGGAGTCACCTAGTGCAG”, 19000 fluorescence intensity (a.u.); in that of “AGTGTTGGCAATGATTGGGACAGGCACCAACTTGCAGTTCCGGAGTCACCTAGTGCAG”, 8240 fluorescence intensity (a.u.). The figure for “GGAGATGGATTTTAATCACTCGAGTGGACATCCACTCGTTCGGAGTCACCTAGTGCAG” is 3430 fluorescence intensity (a.u.); for “CCGAAAATTGGACCTTAGACTATTGGACCAGAAATTGGACCGGAGTCACCTAGTGCAG” it is 17600 fluorescence intensity (a.u.); for “ATGGGGTTATTTTCAAAATTGATTTTGAAAAGGCTTATGACGGAGTCACCTAGTGCAG” it is 4790 fluorescence intensity (a.u.).

Take “GAGATTTGTTTGATGTATCAGGGTGTCACGTTGTCATGTTCGGAGTCACCTAGTGCAG”: the binding signal is 3440 fluorescence intensity (a.u.). “AAGATGAGGTGATAGACTGACTAGCACTGAGCTTGCCCGGCGGAGTCACCTAGTGCAG”: the binding signal was 14400 fluorescence intensity (a.u.). The figure for “TTAACAAAATTATTCATAGCCGTTGACTCTAGATTTTGGCCGGAGTCACCTAGTGCAG” is 3580 fluorescence intensity (a.u.).

In the case of “ACGCCATGATTGACAATGTGATGCTACAGTAAACATTTGCCGGAGTCACCTAGTGCAG”, the binding signal is 53900 fluorescence intensity (a.u.).

For the sequence “AATACAATTTACTCAAATTTAGATCAAAATCAAAACGACTCGGAGTCACCTAGTGCAG”, the binding signal was 4240 fluorescence intensity (a.u.). In the case of “GGTCTAATTGGGCCGTTGTCAACCTTGCATCTCAGCCCATCGGAGTCACCTAGTGCAG” it was 14400 fluorescence intensity (a.u.); in that of “TTTGTGTCAATTAAATTCCACTGTGAGTATGCATATGGAACGGAGTCACCTAGTGCAG”, 10400 fluorescence intensity (a.u.). As to “TGGGAGATTGTATTAAACAGAGGAGAACGATGGCGAAAGGCGGAGTCACCTAGTGCAG”, the binding signal was 6630 fluorescence intensity (a.u.). For “TATAACTGAATGTAAGCACACATGTCCTTTGTGCCGCTGCCGGAGTCACCTAGTGCAG”, the binding signal is 8060 fluorescence intensity (a.u.). With “GGTAATTGCGTTAATCTGGTCGCTTTCACTTTGTTCTACTCGGAGTCACCTAGTGCAG”, the binding signal is 39300 fluorescence intensity (a.u.). In the case of “CAACGGTTAGATTAGATTGGTACTTCATGGTACATCGTGGCGGAGTCACCTAGTGCAG” it was 43200 fluorescence intensity (a.u.). In the case of “GAGATAAATTTATTAAGCCTAATTAATCCGTCATTAGAGTCGGAGTCACCTAGTGCAG”, the binding signal is 3220 fluorescence intensity (a.u.). Consider “TTTTAGCATAATTGAAGAGAGAGATTCTTCAAAATGCCACCGGAGTCACCTAGTGCAG”, for which the binding signal is 21600 fluorescence intensity (a.u.). The figure for “TTCTTAATTGTATTTCTACATAGACTCTATACTCTACTTCCGGAGTCACCTAGTGCAG” is 18300 fluorescence intensity (a.u.); for “CTATGTATATAGTTGCTTAATTGACTTGTCATTAGTATGACGGAGTCACCTAGTGCAG” it is 8030 fluorescence intensity (a.u.). Take “ACTAACGAAATTACTACTTCGTAGGGGTAGGGGTGGCGTGCGGAGTCACCTAGTGCAG”: the binding signal is 4700 fluorescence intensity (a.u.). In the case of “CGAATATATACGAATTAATTATATAGTATGCCTACAATAGCGGAGTCACCTAGTGCAG” it was 4710 fluorescence intensity (a.u.); in that of “AATAAATCAAGTCATGGTCATCATAATGCAATGTCTCAACCGGAGTCACCTAGTGCAG”, 3310 fluorescence intensity (a.u.); in that of “GTGCCATATCTGCATTAATTGACCTTAATATTAGTTGGACCGGAGTCACCTAGTGCAG”, 8350 fluorescence intensity (a.u.).

As to “ATAATTGGAGGAGTCTATATACCCGGTTTTGTGGTTGGAGCGGAGTCACCTAGTGCAG”, the binding signal is 28200 fluorescence intensity (a.u.).

In the case of “CAACTACTAGTCAATTTAATAACCAATTCATATAATACTTCGGAGTCACCTAGTGCAG”, the binding signal was 3360 fluorescence intensity (a.u.). The figure for “CTAAATGATATCAATTAAACGGTGTATCAATTCCATAAATCGGAGTCACCTAGTGCAG” is 37100 fluorescence intensity (a.u.); for “TTGATGATATAATTACATTTCTAGTAATTTATAAATTATCCGGAGTCACCTAGTGCAG” it is 21500 fluorescence intensity (a.u.); for “ATCATGATTGCATGATTGATTGCACATTTGCATCATTTCCCGGAGTCACCTAGTGCAG” it is 63400 fluorescence intensity (a.u.). In the case of “ATCATCTGAATCCAATCAAGACAATAAACTTCTAACCAAACGGAGTCACCTAGTGCAG” it was 4440 fluorescence intensity (a.u.); in that of “GAAGAGTGATGAGTGATGAGAATTGAGATCCCAATCCTGACGGAGTCACCTAGTGCAG”, 5420 fluorescence intensity (a.u.); in that of “TGGTAATTTTATGATTAAATTGACACTAACAAACTTATAGCGGAGTCACCTAGTGCAG”, 57200 fluorescence intensity (a.u.). Turning to “ACTTTTCTGTCACATCGTTCCAATTTTAACCAAACTTTCACGGAGTCACCTAGTGCAG”, the binding signal was 5500 fluorescence intensity (a.u.).
